From the RNAGym collection of RNA variant scans (doi:10.1073/pnas.2313332121)
This sample is rich in variants without activity.

B1: TPR 5TU (parent)
chain: GGAUCUUCUCGAUCUAACAAAAAAGACAAAUCUGCCACAAAGCUUGAGAGCAUCUUCGGAUGCAGAGGCGGCAGCCUUCGGUGGCGCGAUAGCGCCAACGUUCUCAACUAUGACACGCAAAACGCGUGCUCCGUUGAAUGGAGUUUAUCAUG

Variants of: B1
Assay: polymerase ribozyme fitness, log enrichment relative to wild type (log ratio); higher = more active; in vitro selection for triplet polymerase activity
Method in brief: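 Frozen incubation at −7 °C formed the core of a single, triplicate in vitro selection round applied to PCR-built, transcribed mutant libraries of each subunit of a heterodimeric triplet polymerase ribozyme. Extended constructs were gel-excised, captured with streptavidin beads and amplified by RT-PCR, and input and output libraries were Illumina-sequenced with a filter of ≥10 input reads and ≥1 read per output. Fitness is the logarithm of genotype enrichment relative to wild-type enrichment, with inverse-variance-weighted replicate averaging, and the logarithm is base 2.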

Variant	polymerase ribozyme fitness (log ratio)
GGAUCUUCUCGAUCUAACAAAAAAGACAAAUCUGCCAAAAAGCUUGAGAGCAUCUACGGAUGCAGAGGCGGCAGCCUUCGGUGGCGCGAUAGCGCCAACGUUCUCAACUAUGACACGCAAAACGCGUUCUCCGUUGAAUGGAGUUUAUCAUG	-3.69
GGAUCUUCUCGAUCUAACAAAAAAGACAAAUCUGCCAGAAAGCUUGAGCGCAUCUGCGGAUGCAGAGGCGGCAGCCUUCGGUGGCGCGAUAGCGCCAAUGUUCUCAACUAUGACACGCAAAACGCGUGCUUCGUUGAAUGGAGUUUAUCAUG	≤ -4.2
GGAUCUUCUCGAUCUAACAAAAAAGACAAAUCUGCCAAAAAGCUUGAGAGCAUCGUCGGAUGCAGAGGCGCCAGCCUUCGGUGGCGCGAUAGCGGCAACGUUCUCAACUAUGACACGUAAAACGCGUGCUUCGUUGAAUGGAGUUUAUCAUG	≤ -4.2
GGAUCUUCUCGAUCUAACAAAAAAGACAAAUCUGCCAAAAAGCUUGAGAGCAUCUUCGGAUGCAGAGGCGGCAGCCUUCGGAGUCGCGAUAGCGCCAACGUUCUCAACUAUGACACGCACAACGCGUGCUCCGUUGAAUGGAGUUUAUCAUG	-1.37
GGAUCUUCUCGAUCUAACAAAAAAGACAAAUCUGCCAAAAAGCUUGAGAGCAUCUACGGAUGCAGAGGCGGCAGCCUUCGGUGGCGGGAUAGCGCCAACGUUCUCAACUAUGACACGCAAAACGCGUGCUCCGUUGAAUGGAGUUUAUCAUG	≤ -4.2
GGAUCUUCUCGAUCUAACAAAAAAGACAAAUCUGCCAAAAAGCUUGAGAGCAUCUUCGGAUGCAGAGCCGGCAGCCUUCGGUGGCGCGAUAGCGCCAACGUUCUCAACUAUGACACGCAAAACGCGUGCUCCGUUGAAUGGAGGUUAUCAUG	≤ -4.2
GGAUCUUCUCGAUCUAACAAAAAAGACAAAUCUGCCAGAAAGCUUGAGAGCAUCUUCGGCUGCAGAGGCGGCAGCCUUCGGGGGCGUGAUAGCCCCAAGGUUCUCAACUAUGACACGCAAAACGCGUGCUCCGUUGUAUGCAGUUUAUCAUG	≤ -4.2
GGAUCUUCUCGAUCUAACAAAAAAGACAAAUCUGCCAGAAAGCUUGAGAGCAUCUUGGGAUGAAGCGGCGGCAGCCUUCGGUGGCGCGAUAGCGCCAACGUUCUCAACUAUGACACGCAAAACGGGUGCUCCGUUGAAUGGAGUUUAUCAUU	≤ -4.2
GGAUCUUCUCGAUCUAACAAAAAAGACAAAUCUGCCAAAAAGCUUGAGAGCAUCUUCGGAUGCAGAUGCGGCAGCCUUCGAUGUCGCGAUAGCGCCAACGUUCUCAACUAUGACACGCAAAACGCGUGCUCCGUUGAAUGCAGUUUUUCAUG	≤ -4.2
GGAUCUUCUCGAUCUAACAAAAAAGACAAAUCUGCCAAAAAGCUUGAGAGCAUCUUCGGAUGCAGAGGCGGCAGCCAUUGGUGGCGAGAUAGCGCCAACGUUCUCAACUAUGACACGCAAAACGGGUGCUCCGUUGAAUGGAGUUUAUCAUG	≤ -4.2
GGAUCUUCUCGAUCUAACAAAAAAGACAAAUCUGCCAGAAAGCUUGAGCGCAUCUUCGGAUGCAGAUGCGGCAGCCUUGGGUGGCGCGAUAGCGCCAACGUUCUCAACUAUGACACGCAAAGCGCGUGGUCCGUUGAAUAAAGUUUAUCAUG	≤ -4.2
GGAUCUUCUCGAUCUAACAAAAAAGACAAAUCUGCCAGAAAGCUUGAGAGCAUCUUCGGAUGCAGAGGCGGCAGCCUUCGGUGGCGCGAUAGCGCCAUCGUUCUCAACUAUGACACGCAAACCGCGUGCUCCGUUGAAUGCAGUUUAUCAUG	-2.06
GGAUCUUCUCGAUCUAACAAAAAAGACAAAUCUGCCAGAAAGCUUGAGAGCAUCUUCGGAUGCAGAGGCGGCAGCCUUCGGUGGCGUGAUAGCGCCAACCUUCUCAACUAUGACACGCAAAACGCGUGCUCCGUUGUAUGGAGUUUAUGAUG	≤ -4.2
GGAUCUUCUCGAUCUAACAAAAAAGACAAAUCUGCCAAAAAGCUUGAGAGCAUCUUCGGAUGCAGAGGCGGCAGCCUUCGGUGGCGCGAUAGCACCAACGUUCUCAACUAUGACACGCAAAACGCGUGCUCCGUUGAAUGGAGUUUAUCAUG	-0.134
GGAUCUUCUCGAUCUAACAAAAAAGACAAAUCUGCCAGAAAGCUUGAGAGCAUCUUCGGAUGCAGAGGCGGCAGCCUUCGGUGGCGCGAUGGCGCCAACGAUCUCAACUAUGACACGCAAAACGCGUGCUCCGUUGAAUGGAGUUUAUCAUG	≤ -4.2
GGAUCUUCUCGAUCUAACAAAAAAGACAAAUCUGCCAGAAAGCUUGAGAGCAUCUUCGGAUGCAGAGGCGGCAGCCUUCGGUGGCGCGAUAGCGCCAACGUUCUCAACUCUGACACGCAAAACGCGUGCUCCGUUGAAUGGAGUAUAUCAUG	≤ -4.2
GGAUCUUCUCGAUCUAACAAAAAAGACAAAUCUGCCAAAAAGCUUGAGAGCAUCUUCGGAUGCAGAGGCGGCAGCCUUCGGUGGCUCGAUAGCGCCAACGUUCUCAGCUAUGACAUGCAAAACGCGUGCUCCGUUGAAGGGAGUAUAUCAUG	≤ -4.2
GGAUCUUCUCGAUCUAACAAAAAAGACAAAUCUGCCAGAAAGCUUGAGAGCAUCUUCGGAUGCAGAGGCGGCAGCCUUCGGUGGUGCGAUAGCGUCAACGUUGUCAACUAUGGUACGCAAAACGCGUGCUCCGUUGAAUGGCGUUUAUCAUG	≤ -4.2
GGAUCUUCUCGAUCUAACAAAAAAGACAAAUCUGCCAGAAAGCUUGAGAGCAUCUUCGGAUGCAGAGGCGGCAGCCUUCGGUGGUGCGAUAGCGCCAACGUUCUCAAAUAUCACACGCAAAACGCGUGCUCCGUUGAAUGGAGUUUAUCAUG	≤ -4.2
